{
  "source": "PubChem BioAssay AID1768",
  "about": "(National Center for Advancing Translational Sciences (NCATS), 2009)",
  "note": "Out of some 270,000 compounds screened, about 620 (0.23%) were called active. This list was built around the results that the source calls inconclusive (neither active nor inactive); the mix of calls is not that of the screen. Calls come from the whole dose curve; as a rule, active = well fitted inhibition curve with a large enough effect in the polarisation, with a control signal flat (not every such curve was filed as active); inconclusive = small, poorly fitted or top-dose-only effect, or effect the other way, or a change in a side signal; inactive = no such curve, though single readings can be large or run the other way; the % refers to the polarisation. Where the call is inconclusive, the potency comes from a doubtful curve fit. “Side channel” marks fits to a control or component signal instead of the main read-out. Potency is the fitted concentration of half-maximal effect; tags give direction and shape of the fitted curve or compound fluorescence and quenching.",
  "data": [
    {"biological_target": "Menin (Homo sapiens) (UniProt O00255)", "sequence (O00255 whole entry, looked up)": "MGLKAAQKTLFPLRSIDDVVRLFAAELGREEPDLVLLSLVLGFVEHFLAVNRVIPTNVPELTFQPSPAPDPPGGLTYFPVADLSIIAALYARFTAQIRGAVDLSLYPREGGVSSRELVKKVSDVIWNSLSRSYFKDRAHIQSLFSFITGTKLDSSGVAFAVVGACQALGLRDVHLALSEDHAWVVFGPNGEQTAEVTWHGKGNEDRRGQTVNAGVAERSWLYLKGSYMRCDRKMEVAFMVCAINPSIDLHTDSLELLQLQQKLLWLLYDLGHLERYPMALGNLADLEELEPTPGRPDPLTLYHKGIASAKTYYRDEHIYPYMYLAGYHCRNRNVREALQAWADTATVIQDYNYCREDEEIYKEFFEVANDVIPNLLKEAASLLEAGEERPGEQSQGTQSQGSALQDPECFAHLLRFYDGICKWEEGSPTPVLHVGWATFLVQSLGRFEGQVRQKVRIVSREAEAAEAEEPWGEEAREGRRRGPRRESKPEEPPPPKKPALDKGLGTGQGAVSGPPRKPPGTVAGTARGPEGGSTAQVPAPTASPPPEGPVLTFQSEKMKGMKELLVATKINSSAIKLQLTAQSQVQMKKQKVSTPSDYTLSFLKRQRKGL", "test": "qHTS Assay for Inhibitors Targeting the Menin-MLL Interaction in MLL Related Leukemias: Competition With Texas Red Labeled MLL-derived Mutant Peptide; for FP activity change, negative = inhibition: % of control where 0% means no effect", "conditions": "fluorescence polarization; FP activity change, negative = inhibition: at 61.6 µM (top of the series)", "values": [
      {"smiles": "CC1=NN(c2nc(-c3ccc(C)cc3)cs2)C(=O)C1N=Nc1ccc(C(N)=O)cc1", "note": "(stereo not given)", "Potency": "inconclusive: 11.2 µM [quencher, side channel, partial curve]"},
      {"smiles": "O=P1(O)Oc2c(c(-c3ccccc3)cc3ccccc23)-c2c(-c3ccccc3)cc3ccccc3c2O1", "Potency": "inconclusive: 28.2 µM [quencher, side channel, single point]"},
      {"smiles": "CCN(CC)c1ccc2c(C)c(CN3CCOCC3)c(=O)oc2c1", "Potency": "inconclusive: 39.8 µM [inhibitor, single point]"},
      {"smiles": "O=C(NC1=NCCS1)c1cccc(S(=O)(=O)N2CCc3ccccc32)c1", "Potency": "inconclusive: 15.8 µM [quencher, side channel, partial curve]"},
      {"smiles": "CC(=O)N1CCc2c(sc(NC(=O)Cc3ccccc3)c2C#N)C1", "Potency": "inconclusive: 35.5 µM [fluorescent, single point]"},
      {"smiles": "C#CCOCCOCCOCCNc1nc(N2CCOCC2)nc(N2CCN(C(=O)[C@H](Cc3ccc(O)cc3)n3cc([C@@H](N)CC(C)C)nn3)CC2)n1", "Potency": "inconclusive: 7.94 µM [fluorescent, side channel, single point]"},
      {"smiles": "O=C(O)c1nn(Cc2ncc(-c3cccc(Cl)c3)o2)c(=O)c2ccccc12", "Potency": "inconclusive: 35.5 µM [quencher, side channel, single point]"},
      {"smiles": "CCOC(=O)C1=C(C)N=c2s/c(=C/c3ccco3)c(=O)n2C1c1cccc(OC)c1", "note": "(stereo not given)", "Potency": "inconclusive: 31.6 µM [quencher, side channel, single point]"},
      {"smiles": "N#Cc1nc(-c2cccc3ccccc23)oc1N1CCCCC1", "FP activity change, negative = inhibition": "inactive: 5.93%"},
      {"smiles": "Cc1ccccc1-c1nc(-c2ccc(NC(=O)c3cccs3)cc2)no1", "Potency": "inconclusive: 8.91 µM [quencher, side channel, full curve, poor fit]"},
      {"smiles": "Cn1c(=O)c2c(ncn2CCO)n(C)c1=O", "Potency": "inactive"},
      {"smiles": "Cc1cccc(-c2nnn(C/C(N)=N/O)n2)c1", "FP activity change, negative = inhibition": "inactive: 0.301%"},
      {"smiles": "N#Cc1c(SCC(=O)Nc2nncs2)sc2c(O)cc(=O)[nH]c12", "Potency": "inconclusive: 28.2 µM [quencher, side channel, single point]"},
      {"smiles": "Cc1ccc(N=Nc2ccc(O)c3ncccc23)cc1C", "Potency": "inconclusive: 8.91 µM [quencher, side channel, partial curve]"},
      {"smiles": "CCN(C(=O)Cn1c(=O)n(Cc2ccccc2)c(=O)c2ccccc21)c1cccc(C)c1", "Potency": "inconclusive: 31.6 µM [fluorescent, side channel, single point]"},
      {"smiles": "COc1c(S(=O)(=O)N2CCN(c3ccc(F)cc3)CC2)ccc(Cl)c1Cl", "Potency": "inconclusive: 35.5 µM [quencher, side channel, single point]"},
      {"smiles": "O=[N+]([O-])c1cc(Br)cc(/C=N/n2cnnc2)c1O", "Potency": "inconclusive: 39.8 µM [quencher, side channel, single point]"},
      {"smiles": "Cc1c(C)n(C)c2ccc(C(=O)NCCCN3CCCC3)cc12", "FP activity change, negative = inhibition": "inactive: -21.3%"},
      {"smiles": "CS(=O)(=O)c1ccc2nc(NC(=O)CS(=O)(=O)Cc3ccccc3)sc2c1", "Potency": "inconclusive: 35.5 µM [inhibitor, partial curve]"},
      {"smiles": "CC(C)COC(=S)Nc1ccccc1", "FP activity change, negative = inhibition": "inactive: -7.57%"},
      {"smiles": "N#CC1=C2SCN(c3ccccc3)CN2C(=O)CC1c1ccccc1Cl", "note": "(stereo not given)", "Potency": "inconclusive: 17.8 µM [quencher, side channel, partial curve]"},
      {"smiles": "C=C(C)C(O)/C=C/CCCCCCC", "note": "(stereo not given)", "Potency": "inconclusive: 0.316 µM [inhibitor, full curve, poor fit]"},
      {"smiles": "Cc1ccc(N(C)S(=O)(=O)c2nnc(NC(=O)c3ccco3)s2)cc1", "Potency": "inconclusive: 31.6 µM [quencher, side channel, single point]"},
      {"smiles": "CC1=CCC(C(=O)N/N=C/c2cccs2)C(c2ccc(F)cc2)C1", "note": "(stereo not given)", "Potency": "inconclusive: 25.1 µM [inhibitor, partial curve]"},
      {"smiles": "CC(C)(CO)Cc1cc(C(C)(C)C)c(O)c(C(C)(C)C)c1", "Potency": "inconclusive: 14.1 µM [fluorescent, side channel, partial curve]"},
      {"smiles": "Cc1cc(C)cc(NCc2cc(=O)oc3cc(C)c(O)cc23)c1", "Potency": "inconclusive: 20 µM [inhibitor, partial curve]"},
      {"smiles": "CC(C)(C)S(=O)(=O)/C(C#N)=N/Nc1ccc(Cl)cc1", "Potency": "inconclusive: 25.1 µM [quencher, side channel, single point]"},
      {"smiles": "O=C(Nc1ccccc1C(=O)NCc1ccco1)c1ccco1", "FP activity change, negative = inhibition": "inactive: 11.5%"},
      {"smiles": "Cc1cc(C)n(-c2ccc(C(=O)OCC(=O)N(CC(C)C)C3CCS(=O)(=O)C3)cc2)n1", "note": "(stereo not given)", "Potency": "inconclusive: 3.98 µM [inhibitor, partial curve]"},
      {"smiles": "Cc1cs/c(=N\\N=C\\c2cccc([N+](=O)[O-])c2)n1Cc1ccco1", "Potency": "inconclusive: 20 µM [quencher, side channel, partial curve]"},
      {"smiles": "Cc1cc2ccccc2n1CCNC(=O)C1CCCCC1", "Potency": "inconclusive: 25.1 µM [inhibitor, single point]"},
      {"smiles": "N#C/C(=C\\Nc1ccccc1O)c1nc2ccccc2o1", "Potency": "inconclusive: 3.55 µM [quencher, side channel, full curve]"},
      {"smiles": "Cc1ccc2nsnc2c1S(=O)(=O)Nc1cccc2cccnc12", "Potency": "inconclusive: 15.8 µM [quencher, side channel, partial curve]"},
      {"smiles": "COc1ccc(-c2csc(Nc3cccc(C)n3)n2)cc1", "Potency": "inconclusive: 10 µM [quencher, side channel, partial curve]"},
      {"smiles": "Cc1nc2nc(SCC(=O)NCCCN3CCCC3)nn2c(C)c1Cc1ccccc1Cl", "Potency": "inconclusive: 39.8 µM [inhibitor, single point]"},
      {"smiles": "C=C(C)COc1ccc(-c2[nH]ncc2-c2ccc(OC)c(OC)c2)c(O)c1", "Potency": "inconclusive: 25.1 µM [quencher, side channel, partial curve]"},
      {"smiles": "Cc1cc2ccccc2n1CCNC(=O)c1cccs1", "Potency": "inconclusive: 39.8 µM [fluorescent, side channel, single point]"},
      {"smiles": "COc1cccc(CCNc2ccc(N3C(=O)CC(C)C3=O)cc2[N+](=O)[O-])c1", "note": "(stereo not given)", "Potency": "inconclusive: 7.08 µM [quencher, side channel, partial curve]"},
      {"smiles": "COc1ccc(C(=O)N2CC3(C)CC2CC(C)(C)C3)cc1", "note": "(stereo not given)", "Potency": "inconclusive: 20 µM [fluorescent, side channel, partial curve]"},
      {"smiles": "Cc1[nH]c2ccccc2c1/C=N/NC(=O)c1cccc([N+](=O)[O-])c1", "Potency": "inconclusive: 22.4 µM [quencher, side channel, partial curve]"},
      {"smiles": "COc1cccc(CN2CC34CCC(CC3S2(=O)=O)O4)c1", "note": "(stereo not given)", "FP activity change, negative = inhibition": "inactive: 8.32%"},
      {"smiles": "COc1ccc2c(c1)c(=O)oc1cc(OCC(=O)NC3CCCCC3)ccc12", "FP activity change, negative = inhibition": "inactive: -4.24%"},
      {"smiles": "C=CCOc1ccc(/C=C2\\SC(=S)N(NS(=O)(=O)c3ccc(C)cc3)C2=O)cc1", "Potency": "inconclusive: 31.6 µM [quencher, side channel, single point]"},
      {"smiles": "O=C(Nc1ccc(Cl)cc1Cl)c1n[nH]c(Cn2cncn2)n1", "Potency": "inconclusive: 3.98 µM [inhibitor, partial curve]"},
      {"smiles": "COc1ccc(NC(=O)/C(C#N)=C/c2ccc(OCc3ccccc3F)cc2)cc1", "Potency": "active: 17.8 µM"},
      {"smiles": "CC1=CC(C)(C)N(C(=O)c2ccccc2)c2ccc(C)cc21", "Potency": "inconclusive: 14.1 µM [fluorescent, side channel, single point]"},
      {"smiles": "Cc1ccc(S(=O)(=O)NCCCNc2ccc([N+](=O)[O-])cc2)cc1", "Potency": "inconclusive: 17.8 µM [quencher, side channel, partial curve]"},
      {"smiles": "O=C(O)CN1C(=O)/C(=C\\c2cc([N+](=O)[O-])ccc2OCc2ccccc2Cl)SC1=S", "Potency": "inconclusive: 22.4 µM [quencher, side channel, single point]"},
      {"smiles": "CCCNS(=O)(=O)c1ccc(OCC(=O)NCCC2=CCCCC2)cc1", "Potency": "inconclusive: 10 µM [fluorescent, side channel, partial curve]"},
      {"smiles": "O=C(O)c1cc(O)ccc1N=Nc1ccccc1", "Potency": "inconclusive: 4.47 µM [inhibitor, partial curve]"},
      {"smiles": "O=C(CCCN1C(=O)/C(=C\\c2ccco2)SC1=S)Nc1ccc2ccccc2c1", "Potency": "inconclusive: 8.91 µM [quencher, side channel, full curve]"},
      {"smiles": "O=C(Nc1ccc(N2CCN(C(=O)c3ccc(Cl)cc3)CC2)cc1)c1ccc([N+](=O)[O-])o1", "Potency": "inconclusive: 14.1 µM [quencher, side channel, partial curve]"},
      {"smiles": "CSc1nc(N)nc(SCC(=O)CC(=O)OC(C)C)c1C#N", "Potency": "inconclusive: 2.51 µM [inhibitor, full curve]"},
      {"smiles": "COc1ccc(-c2nnc(Nc3nc4c(OC)cccc4s3)o2)c(OC)c1", "FP activity change, negative = inhibition": "inactive: 23.3%"},
      {"smiles": "COc1ccc(Cl)cc1-n1c(C)cc(C(=O)O)c1C", "FP activity change, negative = inhibition": "inactive: -12.5%"},
      {"smiles": "Oc1ccc(/C=N/NC(=S)NCCN2CCOCC2)c(O)c1", "FP activity change, negative = inhibition": "inactive: -6.75%"},
      {"smiles": "O=C(Nc1ccc(OCC(=O)N2CCOCC2)cc1)Nc1cccc(Cl)c1", "Potency": "inconclusive: 17.8 µM [quencher, side channel, partial curve]"},
      {"smiles": "Oc1ccccc1-c1nc2c3ccccc3c3ccccc3c2[nH]1", "Potency": "inconclusive: 5.01 µM [quencher, side channel, full curve]"},
      {"smiles": "CCc1c(C)nc(Nc2nc(C)c3cc(OC)ccc3n2)[nH]c1=O", "Potency": "inconclusive: 8.91 µM [inhibitor, partial curve]"},
      {"smiles": "CCOC(=O)Cc1cc(=O)n2[nH]c(C)c(-c3ccc(Cl)cc3)c2n1", "Potency": "inconclusive: 15.8 µM [quencher, side channel, single point]"}
    ]}
  ]
}
